Data reported in the supplement of paper PMC4723716.
± gives the uncertainty stated by the source. Whole data set: some 9,900 compounds, median “viability index relative to DMSO control” near 1, cut for the lowest 2% near 0.85. Some of the results follow.

What follows are compounds tested on Plasmodium falciparum NF54 stage V gametocytes (assay: viability index relative to DMSO control (fraction); higher = less gametocyte killing). Settings: 2.5 µM, library set: Broad Institute DOS, incubation time: 72 h.
Procedure, shortened: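 In 1,536-well plates, 10 µl of serum-free medium holding P. falciparum NF54 stage V gametocytes (0.75% gametocytemia, 1.25% hematocrit) received compound at 2.5 µM for 72 hr at 37°C in low oxygen. After one to two hours with 3 µl of 2.5 µM MitoTracker Red CMXRos containing 0.13% saponin, red particles of 20–70 µm2 were counted in a single field per well. Viability index is reported as the particle count over the plate mean of wells treated with solvent only.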
In the case of `CO[C@H]1CN(C)C(=O)c2cc(NC(=O)Nc3ccccc3F)ccc2OC[C@@H](C)N(CCC(F)(F)F)C[C@@H]1C`, the viability index is reported as 0.957 ± 0.035. In the case of `COc1ccccc1CN1[C@@H]2c3cccc(=O)n3C[C@H]1[C@H](CO)[C@H]2C(=O)N1CCc2ccccc2C1`, the viability index is reported as 1.07 ± 0.055. With `Cc1ccccc1-c1ccc([C@@H]2[C@@H](CO)N3C(=O)CN(S(C)(=O)=O)C[C@H]23)cc1` the viability index was 1.09 ± 0.045. With `O=C(CN1CCOCC1)N1CC(=O)N2[C@H](C1)[C@H](c1ccc(-c3cccc(F)c3)cc1)[C@@H]2CO` the viability index was 1.04 ± 0.075. In the case of `O=C(C[C@@H]1CC[C@@H](NS(=O)(=O)c2ccccc2F)[C@@H](CO)O1)NCCCN1CCOCC1`, the viability index is reported as 1 ± 0.13. In the case of `CC(=O)N1CC2(C1)[C@H](c1ccc(-c3cccc(C#N)c3)cc1)[C@H](CO)N2CCC(F)(F)F`, the viability index is reported as 1.05 ± 0.11. `CS(=O)(=O)N1[C@H](C#N)[C@@H](c2ccc(C#Cc3cccc(F)c3)cc2)[C@@H]1CO` gave a viability index of 1.1 ± 0.067. `O=C(C[C@@H]1CC[C@@H]2[C@H](COC[C@H](O)CN2C(=O)c2cc(Cl)cc(Cl)c2)O1)N1CCc2ccccc2C1` gave a viability index of 1.032 ± 0.0059. In the case of `O=C(NCC1CC1)[C@@H]1[C@@H](CO)[C@@H]2Cn3c(ccc(-c4cccnc4)c3=O)[C@@H]2N1Cc1cocn1`, the viability index is reported as 1.12 ± 0.062. Compound `CC(C)NC(=O)Nc1ccc2c(c1)C(=O)N(C)[C@H]1CC[C@H](CC(=O)NCc3ccc(F)cc3)O[C@H]1CO2` has a viability index of 0.919 ± 0.034. For `COc1ccc(NC(=O)N2CCCCN3[C@@H](CO)[C@H](c4ccc(-c5ccccc5F)cc4)[C@@H]3C2)cc1`, the viability index was 1.01 ± 0.043. Compound `CCS(=O)(=O)N1CC[C@@]2(CC1)CN[C@@H](CO)c1[nH]c3cc(OC)ccc3c21` has a viability index of 0.995 ± 0.03. Compound `N#C[C@H]1[C@@H](c2ccccc2-c2ccc(F)cc2)[C@@H](CO)N1C(=O)Cc1cccnc1` has a viability index of 1.15 ± 0.046. With `CC(=O)N1[C@@H](CO)[C@H](c2ccccc2)[C@@H]1CN(CC1CCC1)C(=O)CN(C)C` the viability index was 1.01 ± 0.057. With `CNC(=O)C[C@H]1CC[C@H]2[C@@H](COc3ccc(NC(=O)Nc4ccc(C#N)cc4)cc3C(=O)N2C)O1` the viability index was 1.02 ± 0.057. `O=C(C[C@H]1CC[C@@H](NC(=O)C2CC2)[C@H](CO)O1)Nc1ccccc1` was tested, and the viability index was 0.839 ± 0.19. `C/C=C/c1ccccc1[C@@H]1[C@@H](CO)N(C(=O)Cc2ccccn2)[C@H]1C#N` showed a viability index of 1.14 ± 0.12. In the case of `O=C(C[C@H]1CC[C@@H]2[C@H](COC[C@H](O)CN2S(=O)(=O)c2ccccc2)O1)NCC1CCCCC1`, the viability index is reported as 1.03 ± 0.046. With `CO[C@H](CN(C)C(=O)Nc1ccc(Cl)cc1)[C@@H](C)CN(Cc1ccccc1Cl)[C@H](C)CO` the viability index was 0.989 ± 0.015. Work on `CO[C@H]1CC[C@H]2CCOc3c(C#N)cccc3C(=O)N(C)CC3(CCCCC3)CC(=O)N(C)C[C@@H]1O2` yielded a viability index of 0.9754 ± 0.0087. Work on `Cc1noc(C)c1S(=O)(=O)N(C)C[C@@H]1OCc2cnnn2CCCC(=O)N([C@H](C)CO)C[C@@H]1C` yielded a viability index of 1.07 ± 0.043. Compound `CN1C(=O)c2cc(NC(=O)NCc3ccccc3)ccc2OC[C@H]2O[C@H](CC(=O)NCC3CCCCC3)CC[C@@H]21` has a viability index of 0.926 ± 0.046. Compound `CCS(=O)(=O)Nc1ccc2c(c1)C(=O)N(C)[C@@H]1CC[C@H](CC(=O)NCc3ccccc3F)O[C@H]1CO2` has a viability index of 1.11 ± 0.093. In the case of `Fc1ccc(F)c(CN2[C@@H]3CNC[C@H]2[C@@H]3c2ccc(-c3ccncc3)cc2)c1`, the viability index is reported as 1 ± 0.065. Compound `C[C@@H]1CN([C@@H](C)CO)C(=O)c2cccc(NC(=O)c3ccncc3)c2O[C@H]1CN(C)Cc1ccc2c(c1)OCO2` has a viability index of 0.9415 ± 0.0089. `O=C(C[C@H]1CC[C@@H](NS(=O)(=O)c2ccc(F)cc2)[C@H](CO)O1)N1CCN(c2ccccc2)CC1` was tested, and the viability index was 1.09 ± 0.12. For `O=C(O)C[C@@H]1C[C@H]2c3cc(NC(=O)Nc4ccc(C(F)(F)F)cc4)ccc3O[C@H]2[C@H](CO)O1`, the viability index was 1.11 ± 0.052. For `COc1ccc2c3c([nH]c2c1)[C@H](CO)N(C[C@]31CCN(CC1)C(=O)Cc1ccncc1)C(=O)Nc1ccc(F)cc1`, the viability index was 0.993 ± 0.069. `Cc1ccccc1-c1ccc([C@@H]2[C@H]3CN(S(C)(=O)=O)CC(=O)N3[C@H]2CO)cc1` showed a viability index of 1.118 ± 0.007. `O=C(C[C@@H]1CC[C@@H](NC(=O)c2ccc3c(c2)OCO3)[C@@H](CO)O1)NCc1ccc(Oc2ccccc2)cc1` gave a viability index of 1.06 ± 0.069. In the case of `C[C@@H]1CCCCO[C@@H](CN(C)C(=O)NC2CCCCC2)[C@@H](C)CN([C@@H](C)CO)C(=O)c2cc(N(C)C)ccc2O1`, the viability index is reported as 1.14 ± 0.038. Compound `COc1cccc(-c2ccc([C@H]3[C@@H]4CN(S(=O)(=O)c5cn(C)cn5)C[C@H]3N4)cc2)c1` has a viability index of 1.05 ± 0.015. In the case of `CNC(=O)C[C@H]1CC[C@@H]2[C@@H](COc3ccc(NC(=O)c4ccccc4F)cc3C(=O)N2C)O1`, the viability index is reported as 1.14 ± 0.14. `COC(=O)C[C@@H]1CC[C@H]2[C@H](COc3ccc(NC(=O)Nc4c(C)noc4C)cc3C(=O)N2C)O1` showed a viability index of 0.994 ± 0.12. `N#C[C@@H]1[C@H](c2ccccc2)[C@H](CO)N1C(=O)c1ccc2c(c1)OCO2` gave a viability index of 1.03 ± 0.039. In the case of `CS(=O)(=O)Nc1ccc2c(c1)[C@H]1C[C@H](CC(=O)NCc3cc(F)ccc3F)O[C@@H](CO)[C@H]1O2`, the viability index is reported as 1.077 ± 0.0009. Compound `C[C@H](NC(=O)C[C@@H]1C=C[C@H](NC(=O)c2cccnc2)[C@@H](CO)O1)c1ccccc1` has a viability index of 1.098 ± 0.0088. In the case of `C/C=C/c1cnc2c(c1)C(=O)N([C@@H](C)CO)C[C@@H](C)[C@H](CN(C)CC1CCOCC1)O2`, the viability index is reported as 0.943 ± 0.028. With `CCCNC(=O)N(C)C[C@@H]1Oc2ncc(C#CC3CCCCC3)cc2C(=O)N([C@H](C)CO)C[C@@H]1C` the viability index was 0.96 ± 0.088. `C[C@H](CO)N1C[C@H](C)[C@@H](CN(C)Cc2ccccc2C(=O)O)Oc2cc(-c3ccc(F)cc3)ccc2S1(=O)=O` was tested, and the viability index was 0.989 ± 0.089. Work on `O=C(NCC[C@H]1CC[C@@H](NS(=O)(=O)c2ccc(F)cc2)[C@@H](CO)O1)c1ccc2c(c1)OCO2` yielded a viability index of 0.9435 ± 0.0062. In the case of `CO[C@H](C(=O)N(C)C[C@H]1OCc2ccccc2-c2ccccc2C(=O)N([C@@H](C)CO)C[C@@H]1C)c1ccccc1`, the viability index is reported as 0.98 ± 0.046. `O=C(Nc1ccccc1F)N1C[C@H]2[C@@H](c3ccccc31)[C@H](CO)N2C(=O)Cc1cccnc1` showed a viability index of 1.02 ± 0.081. In the case of `CCCNC(=O)N1C[C@@]2(C1)CN([C@H](CO)c1[nH]c3cc(OC)ccc3c21)C(=O)c1ccccc1`, the viability index is reported as 1 ± 0.014. `C[C@@H]1CN([C@@H](C)CO)C(=O)c2cccc(NC(=O)C3CCOCC3)c2O[C@@H]1CN(C)C(=O)Nc1cccc2ccccc12` gave a viability index of 0.974 ± 0.06. `CS(=O)(=O)N1[C@@H](C#N)[C@H](c2ccc(-c3ccccc3F)cc2)[C@@H]1CO` gave a viability index of 1.101 ± 0.0082.
